In all, about 46,000 compounds went through this assay and about 60 (0.1%) were called active. Inconclusive results (about 3%) are left out. Calls come from the whole dose curve; as a rule, active = well fitted inhibition curve with a large enough effect; inconclusive = small, poorly fitted or top-dose-only effect; inactive = no such curve, though single readings can be large or run the other way. The list shows a part of the results.
Assay: Primary qHTS assay for Inhibitors of ovarian cancer metastasis using an organotypic tumor microenvironment (TME) model.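 For activity change, negative = inhibition: plate controls were DMSO wells for no effect and tomatine positive control wells for full effect.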 Note: nearly all actives have a fitted effect of over 65% in size.
Conditions: SKOV3ip1-GFP adhesion/invasion on 3D omental model, fluorescence; series mostly up to 45.8 µM; activity change, negative = inhibition: at the top concentration
How it was run: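 A 3D layer of primary human omental fibroblasts, mesothelial cells, fibronectin and collagen I, grown 48 hr, received SKOV3ip1-GFP cells in serum-free medium plus compounds at 0.36-46 umol/L. After 2 hr RT and 16 hr 37 C, fixed adherent GFP cells were counted; normalized to DMSO and tomatine.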

outcome, inactive:
COc1cccc(N2CC(NC(=O)COc3ccc4ccccc4c3)CC2=O)c1 (stereo not given)
CC(=O)c1ccc(NC(=O)CCn2nc(C)c(S(=O)(=O)N3CCC(C)CC3)c2C)cc1
O=C(Nc1ccc(F)cc1F)c1noc2c1CCc1ccccc1-2
CC(C)c1cnc2c(c1SCc1cccc(C(F)(F)F)c1)c(=O)n(C)c(=O)n2C
COc1ccc(Br)cc1CNC(=O)CN1CCSc2ccccc21
COc1ccc(CN2C(=O)C(NC(=O)c3ccccc3C)(C(F)(F)F)N=C2c2ccccc2)cc1 (stereo not given)
COc1ccccc1CCNc1ncnc2c1nnn2C
COc1cccc(CNC(=O)c2ccc(NC(=O)N3CCCCc4ccccc43)cc2)c1
CCCCn1c(=O)c2oc3ccccc3c2n(CC(=O)Nc2cccc(Cl)c2)c1=O
O=c1c2oc3ccccc3c2n(Cc2ccccc2)c(=O)n1Cc1ccc2c(c1)OCO2
NC(=O)c1cc(S(=O)(=O)NCC2CCC(C(=O)Nc3ccc(Cl)cc3)CC2)cs1 (stereo not given)
CCOC(=O)C1CCN(S(=O)(=O)c2cc(-c3onc(C)c3C)ccc2C)CC1
CCc1ccccc1Nc1cc(C(=O)NCc2ccc(C)cc2)c2ccccc2n1
COCCn1c(C)cc(O)c(C(c2ccccc2)N2CCC(C)CC2)c1=O (stereo not given)

Activity change, negative = inhibition, inactive:
CCc1nnc(SCC(=O)Nc2cc(Cl)c(OC)cc2OC)c2cc3oc(C)cc3n12 7.81%
Cn1cc(S(=O)(=O)c2ccccc2)c(=O)c2cc(F)c(N3CCCCC3)cc21 -4.34%
Cc1noc2nc(C(=O)O)nc(N3CCCCC3)c12 -4.81%
COc1ccc(OC)c(-c2noc(CSc3nnc(Cc4ccccc4)n3-c3cccc(C)c3)n2)c1 -9.29%
CC1CCC(NC(=O)Cn2ncc3c4ccccc4n(Cc4ccc(Cl)cc4)c3c2=O)CC1 (stereo not given) -4.66%
CC(C)CCNC(=O)CSCc1cnn(-c2ccccc2)c1-n1cccc1 -4.1%
CCc1nc(SCC(=O)Nc2ccc(NC(C)=O)cc2)n[nH]1 -5.02%
Cc1ccc(-n2c(=O)c3ccc(C(=O)NCc4ccco4)cc3n(Cc3cccc(Cl)c3)c2=O)cc1 -4.79%
O=C(Nc1ccc(Cl)c(Cl)c1)N1CCC(c2ccccc2)C1 (stereo not given) -12.4%
COc1ccc(NC(=O)Cn2c(=O)n(Cc3nc(-c4ccccc4)no3)c(=O)c3cc4c(cc32)OCO4)cc1Cl -4.44%
CCc1ccc(NC(=O)CC2C(=O)N(c3ccccc3)C(=O)N2C(C)C)cc1 (stereo not given) 3.01%
COC(=O)c1ccccc1NC(=O)Cc1noc2ccc(C)cc12 -1.49%
Cc1ccc2oc(-c3ccc(Cl)c(NC(=O)c4ccc(-c5ccccc5[N+](=O)[O-])o4)c3)nc2c1 56.2%
CCc1ccccc1NC(=O)Cn1nnc(C(=O)Nc2ccc(C)c(F)c2)c1N -5.92%
Cc1cccc(NC(=O)Cn2cc(C(=O)c3ccco3)c3ccccc32)c1C -6.49%
Cc1nn(CC(=O)NCc2ccc(OC(C)C)cc2)c(=O)c2c(C)n(-c3ccc(Cl)cc3)nc12 -13.2%
COc1ccc(CNc2ncnc3c2nnn3C)cc1 -8.01%
COc1ccc2c(c1)-c1nc(NC(=O)c3ccc(Cl)cc3)sc1CC2 -31.2%
CCCCCOc1ccc(C2c3c(oc4ccccc4c3=O)C(=O)N2c2nc(C)c(C)s2)cc1OCC (stereo not given) 1.39%
CSc1ccc(CCNC(=O)Cn2ncc3c(=O)oc4ccc(C)cc4c32)cc1 -3.56%
O=C(CSc1nc2c([nH]c3ccccc32)c(=O)n1-c1ccccc1)N1CCCC1 -11.4%
O=C(Nc1ccc(O)cc1)c1cccc(S(=O)(=O)N2CCOCC2)c1 -5.72%
COc1ccc(S(=O)(=O)c2c(SC)nn(Cc3ccccc3C)c2NC(C)=O)cc1 6.37%
COc1ccc(C)cc1NC(=O)c1ccc2c(Cl)c3c(nc2c1)CCC3 -13%
Cn1nc(C(=O)N2CCN(c3ccccc3)CC2)c2c1-c1ccccc1S(=O)(=O)C2 1.35%
COc1cc2c(cc1OC)n(CC(=O)c1ccc(F)cc1)c(=O)n1nc(CCn3nc(C)cc3C)nc21 2.7%
COc1ccc2oc(=O)cc(CN3CCN(c4ccccc4F)CC3)c2c1 7.26%
CCCC(=O)N1c2nc(C(C)C)nn2C2(CCCCC2)[C@@H]2CCCC[C@@H]21 13.9%
COc1cccc(NS(=O)(=O)c2ccc3[nH]cc(C(=O)N(C)C4CCCCC4)c(=O)c3c2)c1 -6.74%
CCCCc1nn2c(=O)cc(COC(=O)c3ccccc3NC(=O)c3ccccc3OC)nc2s1 3.8%
COc1cc(C2CC(=O)Nc3c2c(=O)[nH]c2ncnn32)ccc1O (stereo not given) -11.3%
CCCN1CCCc2cc(CN(CCCN3CCOCC3)C(=O)Nc3ccc(CC)cc3)ccc21 -0.789%
Cc1ccc(C)c(NC(=O)Cn2c(=O)n(CCC(=O)NCc3ccc4c(c3)OCO4)c(=O)c3ccccc32)c1 34.8%
CCOC(=O)C1CCCN(C(=O)c2ccc3c(c2)N(Cc2ccccc2)C(=O)c2ccccc2S3=O)C1 (stereo not given) -3.53%
Cc1ccc(OCC(=O)Nc2ccc3nn(-c4ccc(Cl)cc4)nc3c2)cc1 -6.6%
CCOC(=O)c1cccc(Nc2ccc3cc(S(=O)(=O)N4CCCCC4)ccc3n2)c1 -0.0681%
O=C(Nc1cccc(Cl)c1)c1csnn1 -10.6%
Cc1nnc(N2CCN(C(=O)Nc3cccc(C(F)(F)F)c3)CC2)c2nn(-c3ccccc3)c(C)c12 2%
Cc1ccc([N+](=O)[O-])cc1S(=O)(=O)N(C)N=Cc1cnc2ccc(Br)cn12 24.3%
Cc1cccc(NC(=O)CN(c2ccc(C(C)C)cc2)S(=O)(=O)c2c(C)nn(C)c2C)c1C -7.12%
Cc1ccc(-n2ncc3c(N4CCN(c5ccccc5)CC4)ncnc32)cc1C -14.9%
COC(=O)c1c(NC(=O)c2cc(=O)c3c(C)cc(C)cc3o2)sc2c1CCCC2 -8.87%
CCOC(=O)N1CCN(C(=O)c2ccc3c(c2)N(Cc2ccccc2F)C(=O)c2ccccc2S3=O)CC1 (stereo not given) 4.24%
O=C(c1c2c(nc3ccccc13)C(=O)N(C1CCCCC1)C2)N1CCN(c2ccc(F)cc2)CC1 8.43%
COc1ccc(N2C(=O)CSC23C(=O)N(C)c2ccccc23)cc1Cl (stereo not given) -2.77%
CC(=O)N1CCCc2cc(S(=O)(=O)N3CCC(C(=O)N(Cc4ccccc4)C(C)C)CC3)ccc21 6.98%

From PubChem BioAssay AID1963576 (National Center for Advancing Translational Sciences (NCATS), 2024)
